This list was built around the results that the source calls inconclusive (neither active nor inactive); the mix of calls is not that of the screen. For part of these data: No potency is given beside an inconclusive call; the fits are too rough. The source made the active and inactive calls. Unless noted, the call rests on the fitted dose curve.
Tests used:
[1] = qHTS assay to identify small molecule antagonists of the peroxisome proliferator-activated receptor delta (PPARd) signaling pathway - cell viability counter screen (AID 743213; active means well fitted curve in the direction sought with a large enough effect in the repeat runs; inconclusive means weak or mixed curves; inactive means no such curve, though single readings can be large; an effect the other way counts as inactive or inconclusive; further: nearly all actives have a fitted effect of over 50% in size; further: potency means the concentration at half of the fitted maximal effect); settings: PPARd-bla HEK293H viability, CellTiter-Glo luminescence, 17 h; viability change, negative = cytotoxic: at 62 µM (top of the series) unless noted
Method in brief: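 Luminescence from CellTiter-Glo, added after the bla read and incubated 30 min at room temperature, gives viability of HEK293H PPARd-bla cells exposed to compounds for 17 h at 37 C with 300 nM L165041.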

[2] = qHTS assay to identify small molecule antagonists of the vitamin D receptor (VDR) signaling pathway - cell viability counter screen (AID 743225; active means well fitted curve in the direction sought with a large enough effect in the repeat runs; inconclusive means weak or mixed curves; inactive means no such curve, though single readings can be large; an effect the other way counts as inactive or inconclusive; further: nearly all actives have a fitted effect of over 50% in size; further: potency means the concentration at half of the fitted maximal effect); settings: VDR-bla HEK293T viability, CellTiter-Glo luminescence, 16 h; viability change, negative = cytotoxic: at 61 µM (top of the series) unless noted
Method in brief: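 Cytotoxicity counter screen read by CellTiter-Glo luminescence (30 min, room temperature) in the same wells as the VDR-bla antagonist readout. HEK 293T VDR-UAS-bla cells had 16 h at 37C with compound and 3 nM (final) 1-alpha,25-dihydroxyvitamin D3, then 2 h with FRET substrate.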

[3] = qHTS assay to identify small molecule agonists of the AP-1 signaling pathway - cell viability counter screen (AID 1159525); further: nearly all actives have a fitted effect of over 55% in size; further: potency means the concentration at half of the fitted maximal effect
Method in brief: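 Luminescent ATP readout (Cell Titer Glo, 30 min RT), normalised to DMSO and tetra n-octyl ammonium bromide controls. Cells were ME-180 AP-1-bla in 0.5% dialyzed FBS Opti-MEM, with a 5 h, 37 °C compound exposure.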

[4] = qHTS assay to identify small molecule agonists of the peroxisome proliferator-activated receptor delta (PPARd) signaling pathway - cell viability counter screen (AID 743211; active means well fitted curve in the direction sought with a large enough effect in the repeat runs; inconclusive means weak or mixed curves; inactive means no such curve, though single readings can be large; an effect the other way counts as inactive or inconclusive; further: on the % scale 0 is the no-effect control and ±100 the full control effect; nearly all actives have a fitted effect of over 55% in size); settings: PPARd-bla HEK293H viability, CellTiter-Glo luminescence, 17 h; activity change, negative = cytotoxicity: at 62.6 µM (top of the series)
Method in brief: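 Viability was measured as CellTiter-Glo luminescence (30 min, room temperature) in the same wells as the beta-lactamase readout. GeneBLAzer PPARd UAS-bla HEK293H cells received compound after 5 h plating and were incubated 17 h at 37 C.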

[5] = target: Peroxisome proliferator-activated receptor delta (Homo sapiens) (UniProt Q03181); experiment: qHTS assay to identify small molecule antagonists of the peroxisome proliferator-activated receptor delta (PPARd) signaling pathway (AID 743215; active means well fitted inhibition curve with a large enough effect in the signal ratio in the repeat runs, not every such curve was filed as active; inconclusive means weak or mixed curves, or effect the other way; inactive means no such curve, though single readings can be large or run the other way; the % refers to the signal ratio;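 further: cells stimulated with agonist L165041 at 300 nM final during compound exposure; on the % scale 0 is the no-effect control and ±100 the full control effect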); settings: HEK293H PPARd-UAS-bla, beta-lactamase FRET ratio, antagonist, 17 h; ratio activity, negative = inhibition: at 62 µM (top of the series) unless noted
Method in brief: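 PPARd UAS-bla HEK293H cells were pre-incubated 5 h at 37 C, then given test compounds in DMSO plus agonist L165041 (300 nM final). After 17 h at 37 C, beta-lactamase FRET substrate was added; fluorescence read after 2 h at room temperature.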

[6] = target: Vitamin D3 receptor (Homo sapiens) (UniProt P11473); experiment: qHTS assay to identify small molecule agonists of the vitamin D receptor (VDR) signaling pathway (AID 743222); settings: HEK293T VDR-UAS-bla, beta-lactamase FRET ratio, 16 h; activation: at 63.5 µM (top of the series) unless noted; further: on the % scale 0 is the no-effect control and ±100 the full control effect
Method in brief: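 VDR-bla cells were plated 4 h at 37C/5% CO2, then exposed to compounds in DMSO for 16 h. After LiveBLAzer B/G FRET substrate addition and 2 h at room temperature, beta-lactamase reporter fluorescence was read.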

[7] = target: Vitamin D3 receptor (Homo sapiens) (UniProt P11473); experiment: qHTS assay to identify small molecule antagonists of the vitamin D receptor (VDR) signaling pathway (AID 743223; active means well fitted inhibition curve with a large enough effect in the signal ratio in the repeat runs, not every such curve was filed as active; inconclusive means weak or mixed curves, or effect the other way; inactive means no such curve, though single readings can be large or run the other way; the % refers to the signal ratio; further: on the % scale 0 is the no-effect control and ±100 the full control effect); settings: VDR-UAS-bla HEK293T, beta-lactamase FRET ratio, 16 h; activity change, negative = inhibition: at 61 µM (top of the series) unless noted
Method in brief: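 Antagonist mode: compound added to VDR-bla cells alongside agonist 1alpha,25-dihydroxyvitamin D3 (3 nM final), incubation 16 h at 37C. Read-out is LiveBLAzer FRET fluorescence, 2 h at room temperature.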

[8] = qHTS assay for small molecule agonists of the antioxidant response element (ARE) signaling pathway (AID 743202; active means well fitted activation curve with a large enough effect in the signal ratio in the repeat runs, not every such curve was filed as active; inconclusive means weak or mixed curves, or effect the other way; inactive means no such curve, though single readings can be large or run the other way; the % refers to the signal ratio; further: potency means the concentration at half of the fitted maximal effect); settings: HepG2 ARE-bla reporter, beta-lactamase FRET, 16 h; activation: at 73.3 µM (top of the series) unless noted
Method in brief: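 An ARE-responsive beta-lactamase gene stably integrated in HepG2 cells serves as reporter. After 5 h plating and 16 h compound incubation at 37 C, fluorescence of the B/G FRET substrate was measured.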

[9] = target: Bile acid receptor (Homo sapiens) (UniProt Q96RI1); experiment: qHTS assay to identify small molecule agonists of the farnesoid-X-receptor (FXR) signaling pathway (AID 743220; active means well fitted activation curve with a large enough effect in the signal ratio in the repeat runs, not every such curve was filed as active; inconclusive means weak or mixed curves, or effect the other way; the % refers to the signal ratio; further: on the % scale 0 is the no-effect control and ±100 the full control effect); settings: HEK293T FXR-UAS-bla, beta-lactamase FRET ratio, 16 h; activation: at 62.6 µM (top of the series)
Method in brief: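 Beta-lactamase reporter under UAS control in GeneBLAzer FXR HEK 293T cells (5000/well) measured with LiveBLAzer FRET substrate after 2 h at room temperature. Compound exposure lasted 16 h at 37C.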

[10] = qHTS assay to identify small molecule agonists of the farnesoid-X-receptor (FXR) signaling pathway - cell viability counter screen (AID 743218; active means well fitted curve in the direction sought with a large enough effect in the repeat runs; inconclusive means weak or mixed curves; inactive means no such curve, though single readings can be large; an effect the other way counts as inactive or inconclusive; further: on the % scale 0 is the no-effect control and ±100 the full control effect; nearly all actives have a fitted effect of over 45% in size); settings: FXR-bla HEK293T viability, CellTiter-Glo luminescence, 16 h; viability change, negative = cytotoxic: at 62.6 µM (top of the series) unless noted
Method in brief: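 FXR-UAS-bla HEK 293T cells, plated 5 h at 37 C, were exposed to compounds for 16 h at 37 C. CellTiter-Glo was then added to the same wells as the bla readout; luminescence read after 30 min at room temperature.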
Tags describe the fitted curve by direction and shape.

UniProt P11473, sequence (P11473 whole entry, looked up): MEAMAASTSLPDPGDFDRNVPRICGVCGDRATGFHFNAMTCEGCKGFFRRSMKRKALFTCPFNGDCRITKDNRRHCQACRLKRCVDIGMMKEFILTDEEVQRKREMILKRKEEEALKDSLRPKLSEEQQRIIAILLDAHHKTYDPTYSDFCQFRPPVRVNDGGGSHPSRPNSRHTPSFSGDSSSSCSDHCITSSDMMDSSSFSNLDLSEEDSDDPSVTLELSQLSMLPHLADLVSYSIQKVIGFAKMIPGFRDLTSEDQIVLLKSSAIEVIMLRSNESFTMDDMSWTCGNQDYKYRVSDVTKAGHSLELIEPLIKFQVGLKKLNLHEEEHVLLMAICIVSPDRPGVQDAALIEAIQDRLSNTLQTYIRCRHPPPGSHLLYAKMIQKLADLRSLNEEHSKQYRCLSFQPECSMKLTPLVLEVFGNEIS
UniProt Q03181, sequence (Q03181 whole entry, looked up): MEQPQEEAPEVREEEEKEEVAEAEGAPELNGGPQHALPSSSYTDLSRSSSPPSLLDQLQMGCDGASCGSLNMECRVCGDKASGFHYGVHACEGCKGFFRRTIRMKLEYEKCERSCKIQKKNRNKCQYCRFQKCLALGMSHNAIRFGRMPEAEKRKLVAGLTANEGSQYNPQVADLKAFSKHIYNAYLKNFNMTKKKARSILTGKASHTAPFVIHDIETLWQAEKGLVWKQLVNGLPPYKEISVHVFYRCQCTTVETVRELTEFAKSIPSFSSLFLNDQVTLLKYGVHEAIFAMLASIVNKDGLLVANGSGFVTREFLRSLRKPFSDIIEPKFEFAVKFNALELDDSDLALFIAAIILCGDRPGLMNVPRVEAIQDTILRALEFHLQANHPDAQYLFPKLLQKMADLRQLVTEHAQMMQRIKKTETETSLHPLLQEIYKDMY
UniProt Q96RI1, sequence (Q96RI1 whole entry, looked up): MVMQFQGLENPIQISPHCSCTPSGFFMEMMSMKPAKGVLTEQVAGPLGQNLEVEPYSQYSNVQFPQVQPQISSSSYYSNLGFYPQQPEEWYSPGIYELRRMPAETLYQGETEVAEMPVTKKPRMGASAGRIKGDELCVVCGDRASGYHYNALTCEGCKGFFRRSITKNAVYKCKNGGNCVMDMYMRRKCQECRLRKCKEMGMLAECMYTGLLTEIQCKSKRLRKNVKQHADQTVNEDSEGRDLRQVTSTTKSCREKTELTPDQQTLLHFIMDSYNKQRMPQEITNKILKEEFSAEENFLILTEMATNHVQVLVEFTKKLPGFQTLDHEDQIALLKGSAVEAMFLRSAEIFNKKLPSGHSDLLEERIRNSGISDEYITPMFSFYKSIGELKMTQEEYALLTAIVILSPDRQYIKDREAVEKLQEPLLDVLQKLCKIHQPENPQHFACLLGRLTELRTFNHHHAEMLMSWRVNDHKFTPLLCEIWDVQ

In the case of `NCCOCCN`, the Potency [1] is reported as “inactive”, the Potency [2] is reported as inconclusive [cytotoxic, partial curve, poor fit] and the Potency [3] is reported as “inactive”.

With `Cc1[nH]c(C)c(Cl)c(=O)c1Cl` the Potency [4] was “inactive”, the Potency [1] was inconclusive [cytotoxic, single point] and the Potency [5] was “inactive”. For the same molecule, the Potency [6] was “inactive”, the Potency [7] was “inactive” and the Potency [3] was inconclusive [cytotoxic, single point].

In the case of `NCCN1CCOCC1`, the activity change, negative = inhibition [7] is reported as inconclusive: 23.1% and the Potency [3] is reported as “inactive”.

For `C=C(C)c1cccc(C(C)(C)N=C=O)c1`, the Potency [6] was “inactive” and the Potency [3] was “inactive”.

For `COCCOCCOCCOC`, the Potency [8] was “inactive”, the Potency [9] was “inactive” and the Potency [3] was “inactive”.

For `C=CCOC(=O)c1ccc(C(=O)OCC=C)c(C(=O)OCC=C)c1`, the Potency [10] was “inactive” and the Potency [3] was “inactive”.

With `COC(=O)c1ccccc1C(=O)c1ccc(OCCN2CCCCC2)cc1` the Potency [8] was “inactive”, the viability change, negative = cytotoxic [10] was inconclusive: -32% [cytotoxic] and the Potency [2] was “inactive”. For the same molecule, the Potency [3] was “inactive”.

For `C#CCN(C)CCCOc1ccc(Cl)cc1Cl`, the Potency [8] was active: 15 µM, the ratio activity, negative = inhibition [5] was inconclusive: 3.36% and the Potency [3] was inconclusive [cytotoxic, partial curve, poor fit].

With `FC(F)OC(Cl)C(F)(F)F` (configuration not stated) the Potency [1] was inconclusive [cytotoxic, full curve, poor fit] and the Potency [3] was “inactive”.
